Out of some 150,000 compounds screened, about 540 (0.36%) showed an effect of 50% or more. Some of the results follow.

For the assay, the system named is Plasmodium falciparum. Nature of the assay: Primary screen in NF54 nanoGlo assay, in single point, at 2uM, 72h; a lower Z score goes with more inhibition. The class given is functional, Erythrocyte. The following applies: timepoint 72 hour.
As to `Cc1c(-c2ccccc2)nn(C)c1NC(=O)[C@H]1CCCO1`, the “% Inhibition” value is -9% and the Z score came to 1.69.
The matching figures for `Cc1cccc(NC(=O)C2OCC(=O)N(C)C2c2cccc(F)c2)n1` (stereo unspecified): -2% and 0.24.
The matching figures for `CCNc1ccc(Cl)cc1C(=O)N1C2CCC1CC(=O)NC2` (stereo unspecified): -17% and 1.8.
The corresponding values for `NC[C@H]1CN(C(=O)C2(c3cccs3)CCCCC2)CCCO1` are 16% and -2.07.
Take `CCCc1cc(N2CC(Cc3cc(OC)cc(OC)c3)C2)n2ncnc2n1`: the “% Inhibition” value is given as -3% and the Z score was determined as 0.46.
The matching figures for `CS(=O)(=O)NCCn1ccc(-c2cnccn2)n1`: -2% and 0.26.
As to `O=C(N[C@@H]1CN(Cc2c(F)cccc2F)C[C@H]1CO)C1CCC1`, the “% Inhibition” value is -6% and the Z score is on record as 0.89.
As to `CCCNC(=O)CCN[C@H]1CCS(=O)(=O)c2ccc(Cl)cc21`, the “% Inhibition” value was determined as 4% and the Z score was -0.46.
The corresponding values for `CCn1nc(C2CC2)nc1-c1ccc(O)c(Cl)c1` are 0% and 0.02.
The corresponding values for `COc1cccc(C(=O)N2CCN(C(=O)c3cncnc3C)CC2)c1` are -7% and 0.66.
The matching figures for `COc1ccc(N2CCN(c3nccn4nc(-c5cccs5)cc34)CC2)cc1`: 30% and -0.84.
On to `N#CC(c1ccccc1)(c1ccccc1)C(C#N)(c1ccccc1)c1ccccc1`, for which the “% Inhibition” value came out at 0% and the Z score is recorded as -0.03.
`O=S(=O)(Cc1ccccc1)N1CCN(C2CCCC2)CC1`: the “% Inhibition” value worked out at 7% and the Z score is -0.87.
The corresponding values for `Cc1ccc(C(=O)N2CCCC(C(=O)N3CCC(C4CCOC4)C3)C2)cc1` (stereo unspecified) are -6% and 0.93.
`COc1ccc2nc(C[C@@H]3C[C@@H](C(C)C)[C@H](CNC(=O)Cn4cnnn4)C=C3C)[nH]c2n1`: the “% Inhibition” value is listed as -5% and the Z score was found to be 0.91.
The corresponding values for `CC(C)CCOC(C)C(=O)N1CCCC(C)C1` (stereo unspecified) are -10% and 1.5.
The corresponding values for `O=C(CCCN1CCCC1=O)NCc1cccc(C(F)(F)F)c1F` are -3% and 0.32.
The matching figures for `O=C(Nc1cccc2cc[nH]c12)N1CCC(O)(C2CCC2)CC1`: -5% and 1.01.
Consider `Cc1nc(CN(C)C(=O)C[C@H]2CCCc3ccccc32)no1`, for which the “% Inhibition” value is given as 0% and the Z score was found to be 0.04.
As to `CC(C)c1ccc(C#N)c(-c2ccc(C(=O)NCCC3(O)CCCC3)cc2)n1`, the “% Inhibition” value was -12% and the Z score worked out at 1.67.
The matching figures for `Cc1c(CN(C)[C@@H](C)CC(N)=O)[nH]c2ccc(Cl)cc12`: -1% and 0.13.
For `O=C(CCC1CCC(C2OCCO2)O1)NCCc1ccco1` (stereo unspecified), the “% Inhibition” value is listed as -12% and the Z score came out at 2.25.
As to `CN1C(=O)[C@]2(CCN(S(=O)(=O)c3cccc(C#N)c3)C2)c2ccccc21`, the “% Inhibition” value is -5% and the Z score amounted to 0.63.
The corresponding values for `O=C(NC[C@H](O)c1cccs1)c1cccs1` are -3% and 0.57.
The corresponding values for `N#Cc1c(N2CCC(OCCCO)CC2)nc2ccccn12` are 4% and -0.37.
For `O=S(=O)(NCCc1cccc2[nH]ccc12)C1CC1`, the “% Inhibition” value turned out to be 5% and the Z score was -0.92.
The corresponding values for `COc1c(N)cc(C(=O)O)cc1Br` are -7% and 1.13.
The corresponding values for `CC1(C)C2CCC1(C)C(OC(=O)CN1CCCS1(=O)=O)C2` (stereo unspecified) are -7% and 0.98.
The matching figures for `O=C([C@@H]1CCCCN1CCC(F)(F)F)N1CCCC1`: -10% and 1.01.
For the compound `O=c1nc(NC2CC(F)(F)C2)[nH]c2[nH]ncc12`, the “% Inhibition” value is 2% and the Z score is reported as -0.22.
For the compound `CCN(CC)CCCNC(=O)C1CCN(c2nnc(C)c3c(C)n(-c4ccc(OC)cc4)nc23)CC1`, the “% Inhibition” value is -5% and the Z score turned out to be 0.8.
The matching figures for `CCOC(=O)N1CCc2c(sc(NCc3ccc(OC)cc3)c2C(=O)Nc2ccc(OCC)cc2)C1`: -1% and 0.23.
`Cc1ccc(NC(=O)CC(=O)NCc2ncc[nH]2)c(C)c1`: the “% Inhibition” value is reported as -1% and the Z score is reported as 0.14.
As to `CCOc1cccc2c1Oc1c(c(=O)n(-c3ccc(CC)cc3)n1CC(=O)Nc1ccc3c(c1)OCCO3)C2`, the “% Inhibition” value is listed as -16% and the Z score turned out to be 1.62.
Turning to `COc1ccc(N2C(=O)[C@@H]3CCCN3[C@H]2c2ccc(N(C)C)cc2)cc1Cl`, the “% Inhibition” value is listed as -10% and the Z score is on record as 1.25.
The corresponding values for `Cc1cc(Br)cnc1N(C)CCN1CCCC1=O` are -13% and 1.43.
The matching figures for `COC1CCN(C(=O)c2ccc3c(c2)n(CC2CC2)c(=O)n3C2CCCCC2)CC1`: -3% and 0.31.
The matching figures for `COC(=O)Cc1cc(O)n(-c2ccccn2)n1`: -6% and 1.1.
On to `Cc1cccc(CN2CCN(Cc3cnn(C)c3C)C[C@@H]2CCO)n1`, for which the “% Inhibition” value is given as -7% and the Z score is 1.06.
For `COC(=O)c1nscc1S(=O)(=O)N1CCOCC(F)(F)C1`, the “% Inhibition” value is -4% and the Z score was determined as 0.64.
`NC(=O)CCN1CCC[C@H](c2nc3ccccc3s2)C1`: the “% Inhibition” value is -1% and the Z score worked out at 0.1.
Regarding `C=Cc1ccc(C(=O)NCC[C@H]2CCCN(C)C2)cc1`, the “% Inhibition” value is listed as -11% and the Z score came to 1.66.
On to `NC(=O)c1ccc(=O)n(Cc2ccn(-c3ccccc3)n2)n1`, for which the “% Inhibition” value was -11% and the Z score is listed as 1.28.

The values above are taken from ChEMBL document CHEMBL4888484, “Replenishing the malaria drug discovery pipeline: Screening and hit evaluation of the MMV Hit Generation Library 1 (HGL1) against asexual blood stage Plasmodium falciparum ,using a nano luciferase reporter read-out” (2022).
